Hit rate of the full screen: of about 310,000 compounds, about 14,000 (4.5%) showed an effect of 50% or more. The effect is printed as a negative number. Some of the results follow.
Target: human ether-à-go-go-related gene (hERG) potassium channel (human, UniProt Q12809)
Experiment: primary screen, population patch clamp on CHO cells stably expressing hERG
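Note: peak tail current of the secondary pulse compared with the same well before compound.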

Chain of human ether-à-go-go-related gene (hERG) potassium channel (Q12809 whole entry, looked up): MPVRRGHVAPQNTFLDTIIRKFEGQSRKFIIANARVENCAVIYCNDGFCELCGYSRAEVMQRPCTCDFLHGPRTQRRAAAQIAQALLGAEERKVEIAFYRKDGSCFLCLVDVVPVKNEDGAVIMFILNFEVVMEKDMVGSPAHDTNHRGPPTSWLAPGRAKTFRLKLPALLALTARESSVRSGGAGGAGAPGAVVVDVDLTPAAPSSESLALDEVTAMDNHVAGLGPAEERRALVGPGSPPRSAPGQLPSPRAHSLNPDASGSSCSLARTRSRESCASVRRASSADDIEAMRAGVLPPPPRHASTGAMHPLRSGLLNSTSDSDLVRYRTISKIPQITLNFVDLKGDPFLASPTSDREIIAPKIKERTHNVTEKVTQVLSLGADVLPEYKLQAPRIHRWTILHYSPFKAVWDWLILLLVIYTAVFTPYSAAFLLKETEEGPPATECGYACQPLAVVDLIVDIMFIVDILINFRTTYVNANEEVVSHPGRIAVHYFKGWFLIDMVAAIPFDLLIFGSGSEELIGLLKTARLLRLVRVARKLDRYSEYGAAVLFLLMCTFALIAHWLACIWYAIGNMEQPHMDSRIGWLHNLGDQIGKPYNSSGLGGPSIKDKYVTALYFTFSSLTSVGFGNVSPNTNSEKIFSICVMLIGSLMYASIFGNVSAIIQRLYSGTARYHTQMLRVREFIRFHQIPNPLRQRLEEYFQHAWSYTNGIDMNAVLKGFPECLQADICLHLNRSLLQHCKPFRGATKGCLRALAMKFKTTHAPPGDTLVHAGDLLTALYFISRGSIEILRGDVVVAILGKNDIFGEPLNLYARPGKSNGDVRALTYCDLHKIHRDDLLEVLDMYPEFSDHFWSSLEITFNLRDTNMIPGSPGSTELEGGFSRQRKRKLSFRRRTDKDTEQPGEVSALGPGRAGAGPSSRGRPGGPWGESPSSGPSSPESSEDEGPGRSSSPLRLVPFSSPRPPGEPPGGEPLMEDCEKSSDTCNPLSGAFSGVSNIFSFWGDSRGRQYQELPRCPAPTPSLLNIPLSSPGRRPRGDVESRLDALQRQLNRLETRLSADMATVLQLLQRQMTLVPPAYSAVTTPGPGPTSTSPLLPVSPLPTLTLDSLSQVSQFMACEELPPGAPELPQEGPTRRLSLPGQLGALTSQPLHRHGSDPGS

| SMILES | hERG current change (%, negative = inhibition) at 10uM [%] |
| --- | --- |
| Cc1ccccc1NC(=O)CSc1nnnn1C | 6.94 |
| CC(=O)c1cccc(OCc2cc(C(=O)N3CC4C[C@@H]5CC3C[C@H](C4)C5)no2)c1 | 1.43 |
| Nc1nc(COc2ccc(F)cc2Cl)nc(N2CCCCC2)n1 | 7.88 |
| COc1cccc(-c2csc(N3CCN(C(=S)Nc4ccc(Cl)cc4)CC3)n2)c1 | 6.14 |
| Oc1ccc(-c2csc(Nc3ccccn3)n2)cc1 | 13 |
| O=c1cc(-c2ccccc2)nc(SCc2ccc(F)cc2)[nH]1 | 3.26 |
| CCn1c(SCc2ccc([N+](=O)[O-])cc2)nnc1C(C)NC(=O)c1ccc(C)cc1 (stereo not drawn) | -33.6 |
| CSC1=C(C#N)C(c2ccc(C)s2)CC(=O)N1 (stereo not drawn) | -10.5 |
| COc1ccc(CC(=O)Nc2ccc(NC(=O)c3ccc(Br)cc3)cc2)cc1OC | 20.1 |
| O=C(c1cc(=O)c2ccccc2o1)N(Cc1ccccc1)C1CCS(=O)(=O)C1 (stereo not drawn) | -13.9 |
| Cc1ccc(CSCCC(=O)NCCc2ccc(Cl)cc2)cc1 | -9.69 |
| Cc1cc(C)cc(N(C(=O)c2csnn2)C(C(=O)NC2CCCCC2)c2cccnc2)c1 (stereo not drawn) | 4.35 |
| FC(F)(F)c1cc(-c2ccco2)nc(N2CCN(c3ccccc3)CC2)n1 | 1.67 |
| CCNC(=S)NCc1ccc(OC)c(OC)c1 | 24 |
| COc1ccc(C)cc1NC(=O)C(=O)NNC(=O)COc1ccc(Cl)cc1 | 29.3 |
| c1csc(-c2nc(N3CCCCC3)no2)c1 | 20.6 |
| CC(C)S(=O)(=O)c1csc(C(=O)NN)c1Cl | 3.46 |
| O=C(CN1N=C(c2ccccc2)CCC1=O)NCCCN1CCc2ccccc2C1 | -49.6 |
| O=C(c1c(F)cccc1F)N1CCCc2ccccc21 | 12 |

| SMILES | hERG current change (%, negative = inhibition) at 10uM [%] |
| --- | --- |
| Cc1ccccc1OCCC(=O)Nc1ccc(S(=O)(=O)N(C)C2CCN(C)CC2)cc1 | 30 |
| COc1ccc(CC(=O)N(C)Cc2ccc(C(C)(C)C)cc2)cc1S(=O)(=O)N1CCOCC1 | -33.6 |
| Cc1nc(-c2ccc(Cl)cc2)sc1C(=O)CBr | -1.74 |
| CCCCN(C)C(=O)c1cc2c(Cl)nc3ccccc3c2s1 | -4.12 |
| Cc1ccc(S(=O)(=O)NCC(=O)N(CC(=O)NC2CCCCC2)CC2CCCO2)cc1 (stereo not drawn) | -7.55 |
| COc1cc(NC(=S)N2CCCCC2C)c(OC)cc1Cl (stereo not drawn) | -5.01 |
| Cc1cc(NC(=O)CSc2nc3ccccc3c(=O)n2CCCC(=O)NCc2ccco2)n[nH]1 | -7 |
| CCn1c(C(O)c2ccccc2)nc2ccccc21 (stereo not drawn) | -22.7 |
| COC(=O)CCC/C=C1\SC[C@@H](NC(=O)c2ccccc2)C1NC(C)=O (stereo partly drawn) | 8.46 |
| CC(=O)NCCC(=O)N(Cc1ccccc1)c1nc2c(C)cccc2s1 | -57.4 |
| CCC1C(=O)N=C(SCC(=O)Nc2ccc(C)cc2)N(c2ccccc2)C1=O (stereo not drawn) | 19.4 |
| CC1(C)CC(C(CCN(Cc2ccccc2)C(=O)c2ccco2)c2ccc(F)cc2)CCO1 (stereo not drawn) | -10.4 |
| O=C(CSc1n[nH]c(=O)[nH]c1=O)Nc1ccc(C(=O)O)cc1 | 14.9 |
| c1cncc(-c2nc(NCc3cccs3)c3ccccc3n2)c1 | 8.45 |
| Cl.c1ccc(CNc2nc3ccccc3n2CCN2CCOCC2)nc1 | -15.5 |
| COc1ccccc1NC(=O)COn1nnc2ccc(S(=O)(=O)N3CCOCC3)cc21 | 4.92 |
| COc1cc(C(=S)N2CCOCC2)ccc1OC(=O)c1cc(OC)c(OC)c(OC)c1 | 21.8 |
| COc1ccc(NC(=O)C2CCCCN2S(=O)(=O)c2ccc(F)cc2)c(OC)c1 (stereo not drawn) | -5.05 |
| Cc1cccc(C(=O)NC(=O)Nc2c(C)cc(C)nc2C)c1 | 12.4 |

| SMILES | hERG current change (%, negative = inhibition) at 10uM [%] |
| --- | --- |
| COc1ccccc1NC(=O)CSc1ccc2nnc(-c3ccccn3)n2n1 | 0.136 |
| COc1ccc(C(=O)Nc2ccncc2)c(OC)c1 | 5.73 |
| COc1cc(OC)cc(C(=O)NCCNC(=O)c2ccco2)c1 | -11.4 |
| COc1ccccc1-c1c(NC(=O)c2ccco2)n(C)c2ccccc2c1=O | -3.33 |
| c1ccc(-c2nnnn2-c2ccccc2)cc1 | 12.3 |
| O=C(O)Cn1c(O)c(C=Nc2ccccc2)sc1=S [4242532] | 14.1 |
| COc1ccc(C(=O)c2ccc(N(C)C)cc2)c2ccccc12 | -3.44 |
| CC1(C)CC2CC(C)(CN2C(=O)c2ccc([N+](=O)[O-])cc2)C1 (stereo not drawn) | -62.4 |
| COCCn1c(=N)c(C(=O)NCCc2ccc(OC)cc2)cc2c(=O)n3cccc(C)c3nc21 | -84.8 |
| Cc1cc(NC(=O)CSc2nnc(CNC(=O)c3cccc(C(F)(F)F)c3)o2)no1 | 8.48 |
| Cc1sc2nc(C3CC3)nc(NCCNS(C)(=O)=O)c2c1C | -6.7 |
| CSCC[C@H](NC(=O)Cc1ccc(Cl)cc1)C(=O)N1CCC2(CC1)NCCc1[nH]cnc12 | 19.8 |
| Cc1cccc(NS(=O)(=O)Cc2ccccc2)c1C | 26 |
| O=C(NCc1ccccc1Cl)NC(=O)c1ccccc1 | -2.02 |
| COC(=O)Nc1nnc(Cc2ccccc2)s1 | -3.3 |
| Cc1cc(C)cc(OCc2nnc(SCC(=O)OC(C)C)o2)c1 | 8.21 |
| CC(=O)N1CCN(c2ccc(NCc3cccc(C)c3)cc2)CC1 | 11.5 |
| N=c1c2c(-c3ccccc3)c(-c3ccccc3)n(Cc3ccccc3)c2ncn1CCCn1ccnc1 | -71.2 |
| CCOC(=O)C1=C(c2ccccc2)ON(C)C1c1ccccc1 (stereo not drawn) | 12.7 |

From PMC4336329 (PLoS ONE, 2015)
